{"source": "paper PMC9911399", "about": "“Two distinct binding modes provide the RNA-binding protein RbFox with extraordinary sequence specificity”", "binders": {"B1": {"name": "AAGUCCA (DNA:RNA)", "RNA": "GGGAGACCGGAAUUCAGAUUGUCCAAGUCCAUUAAAUCCCGUCGUAGCCACCA", "DNA 1": "CAATCTGAATTCCGGTCTCCC", "DNA 2": "TGGTGGCTACGACGGGATT"}, "B2": {"name": "CUUCAAU (DNA:RNA)", "RNA": "GGGAGACCGGAAUUCAGAUUGUCCCUUCAAUUUAAAUCCCGUCGUAGCCACCA", "DNA 1": "CAATCTGAATTCCGGTCTCCC", "DNA 2": "TGGTGGCTACGACGGGATT"}, "B3": {"name": "AGUUUCU (DNA:RNA)", "RNA": "B1 RNA with A26G, G27U, C29U, A31U", "DNA 1": "CAATCTGAATTCCGGTCTCCC", "DNA 2": "TGGTGGCTACGACGGGATT"}, "B4": {"name": "UCCCGCG (DNA:RNA)", "RNA": "B1 RNA with A25U, A26C, G27C, U28C, C29G, A31G", "DNA 1": "CAATCTGAATTCCGGTCTCCC", "DNA 2": "TGGTGGCTACGACGGGATT"}, "B5": {"name": "UGUCUGG (DNA:RNA)", "RNA": "B2 RNA with C25U, U26G, A29U, A30G, U31G", "DNA 1": "CAATCTGAATTCCGGTCTCCC", "DNA 2": "TGGTGGCTACGACGGGATT"}, "B6": {"name": "GUAACGU (DNA:RNA)", "RNA": "B2 RNA with C25G, U27A, C28A, A29C, A30G", "DNA 1": "CAATCTGAATTCCGGTCTCCC", "DNA 2": "TGGTGGCTACGACGGGATT"}, "B7": {"name": "AAAUCUA (DNA:RNA)", "RNA": "B1 RNA with G27A, C30U", "DNA 1": "CAATCTGAATTCCGGTCTCCC", "DNA 2": "TGGTGGCTACGACGGGATT"}, "B8": {"name": "GAGUACG (DNA:RNA)", "RNA": "B1 RNA with A25G, C29A, A31G", "DNA 1": "CAATCTGAATTCCGGTCTCCC", "DNA 2": "TGGTGGCTACGACGGGATT"}, "B9": {"name": "CCGUCCU (DNA:RNA)", "RNA": "B1 RNA with A25C, A26C, A31U", "DNA 1": "CAATCTGAATTCCGGTCTCCC", "DNA 2": "TGGTGGCTACGACGGGATT"}, "B10": {"name": "AGCCGCU (DNA:RNA)", "RNA": "B1 RNA with A26G, G27C, U28C, C29G, A31U", "DNA 1": "CAATCTGAATTCCGGTCTCCC", "DNA 2": "TGGTGGCTACGACGGGATT"}, "B11": {"name": "GUCACUG (DNA:RNA)", "RNA": "B1 RNA with A25G, A26U, G27C, U28A, C30U, A31G", "DNA 1": "CAATCTGAATTCCGGTCTCCC", "DNA 2": "TGGTGGCTACGACGGGATT"}, "B12": {"name": "GGGUAAU (DNA:RNA)", "RNA": "B2 RNA with C25G, U26G, U27G, C28U", "DNA 1": "CAATCTGAATTCCGGTCTCCC", "DNA 2": "TGGTGGCTACGACGGGATT"}, "B13": {"name": "CGUUUCU (DNA:RNA)", "RNA": "B2 RNA with U26G, C28U, A29U, A30C", "DNA 1": "CAATCTGAATTCCGGTCTCCC", "DNA 2": "TGGTGGCTACGACGGGATT"}, "B14": {"name": "GAAGCAC (DNA:RNA)", "RNA": "B1 RNA with A25G, G27A, U28G, C30A, A31C", "DNA 1": "CAATCTGAATTCCGGTCTCCC", "DNA 2": "TGGTGGCTACGACGGGATT"}, "B15": {"name": "CCCUCAA (DNA:RNA)", "RNA": "B1 RNA with A25C, A26C, G27C, C30A", "DNA 1": "CAATCTGAATTCCGGTCTCCC", "DNA 2": "TGGTGGCTACGACGGGATT"}, "B16": {"name": "ACCCUUC (DNA:RNA)", "RNA": "B1 RNA with A26C, G27C, U28C, C29U, C30U, A31C", "DNA 1": "CAATCTGAATTCCGGTCTCCC", "DNA 2": "TGGTGGCTACGACGGGATT"}, "B17": {"name": "GUCGUCU (DNA:RNA)", "RNA": "B2 RNA with C25G, U27C, C28G, A29U, A30C", "DNA 1": "CAATCTGAATTCCGGTCTCCC", "DNA 2": "TGGTGGCTACGACGGGATT"}, "B18": {"name": "UUUCAUG (DNA:RNA)", "RNA": "B2 RNA with C25U, A30U, U31G", "DNA 1": "CAATCTGAATTCCGGTCTCCC", "DNA 2": "TGGTGGCTACGACGGGATT"}, "B19": {"name": "AUCAAAG (DNA:RNA)", "RNA": "B2 RNA with C25A, U27C, C28A, U31G", "DNA 1": "CAATCTGAATTCCGGTCTCCC", "DNA 2": "TGGTGGCTACGACGGGATT"}, "B20": {"name": "GGAACAC (DNA:RNA)", "RNA": "B1 RNA with A25G, A26G, G27A, U28A, C30A, A31C", "DNA 1": "CAATCTGAATTCCGGTCTCCC", "DNA 2": "TGGTGGCTACGACGGGATT"}, "B21": {"name": "AAUGCGA (DNA:RNA)", "RNA": "B1 RNA with G27U, U28G, C30G", "DNA 1": "CAATCTGAATTCCGGTCTCCC", "DNA 2": "TGGTGGCTACGACGGGATT"}, "B22": {"name": "AACUAGC (DNA:RNA)", "RNA": "B1 RNA with G27C, C29A, C30G, A31C", "DNA 1": "CAATCTGAATTCCGGTCTCCC", "DNA 2": "TGGTGGCTACGACGGGATT"}, "B23": {"name": "GUGAUAU (DNA:RNA)", "RNA": "B2 RNA with C25G, U27G, C28A, A29U", "DNA 1": "CAATCTGAATTCCGGTCTCCC", "DNA 2": "TGGTGGCTACGACGGGATT"}, "B24": {"name": "CCGAAAG (DNA:RNA)", "RNA": "B2 RNA with U26C, U27G, C28A, U31G", "DNA 1": "CAATCTGAATTCCGGTCTCCC", "DNA 2": "TGGTGGCTACGACGGGATT"}, "B25": {"name": "AUAGUGA (DNA:RNA)", "RNA": "B1 RNA with A26U, G27A, U28G, C29U, C30G", "DNA 1": "CAATCTGAATTCCGGTCTCCC", "DNA 2": "TGGTGGCTACGACGGGATT"}, "B26": {"name": "CUUCACU (DNA:RNA)", "RNA": "B2 RNA with A30C", "DNA 1": "CAATCTGAATTCCGGTCTCCC", "DNA 2": "TGGTGGCTACGACGGGATT"}, "B27": {"name": "UGUGACC (DNA:RNA)", "RNA": "B2 RNA with C25U, U26G, C28G, A30C, U31C", "DNA 1": "CAATCTGAATTCCGGTCTCCC", "DNA 2": "TGGTGGCTACGACGGGATT"}, "B28": {"name": "GUCGGAA (DNA:RNA)", "RNA": "B2 RNA with C25G, U27C, C28G, A29G, U31A", "DNA 1": "CAATCTGAATTCCGGTCTCCC", "DNA 2": "TGGTGGCTACGACGGGATT"}, "B29": {"name": "AAAAUAU (DNA:RNA)", "RNA": "B1 RNA with G27A, U28A, C29U, C30A, A31U", "DNA 1": "CAATCTGAATTCCGGTCTCCC", "DNA 2": "TGGTGGCTACGACGGGATT"}, "B30": {"name": "UCUGUCA (DNA:RNA)", "RNA": "B1 RNA with A25U, A26C, G27U, U28G, C29U", "DNA 1": "CAATCTGAATTCCGGTCTCCC", "DNA 2": "TGGTGGCTACGACGGGATT"}, "B31": {"name": "AGGGCUA (DNA:RNA)", "RNA": "B1 RNA with A26G, U28G, C30U", "DNA 1": "CAATCTGAATTCCGGTCTCCC", "DNA 2": "TGGTGGCTACGACGGGATT"}}, "note": "Where a chain is given by its changes, count along the chain named. Some of the results follow."}
{"target": "T1, RBFOX1 RRM RbFoxmut (Fox-RRM*) (Homo sapiens, UniProt Q9NWB1 109-208, R118D;E147R;N151S;E152T)", "T1 sequence": "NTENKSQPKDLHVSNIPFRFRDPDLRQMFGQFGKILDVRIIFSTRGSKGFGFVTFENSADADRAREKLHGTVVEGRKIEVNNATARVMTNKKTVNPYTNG", "test": "EMSA; HiTS-Eq, 1 nM pool, 10 min; buffer printed only for the single-RNA assays: 10 mM Tris pH 7.5, 150 mM NaCl, 3.4 mM EDTA, 0.001% NP-40, 30 C", "conditions": "tags: His6 N-terminal (pET28a); label: 5' 32P", "summary_of_the_method": "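Purified RbFox RRM (wild type or mutant) was equilibrated for 10 min in 50 µL with 1 nM of a 5′-radiolabelled pool of RNA with 7 randomized nucleotides, its flanks annealed to DNA oligonucleotides, across increasing protein concentrations. Free RNA was separated by 8% native PAGE, excised, reverse-transcribed, PCR-barcoded and sequenced on an Illumina HiSeq 2500. Relative association constants came from read-count changes of each variant against the control reaction, normalised to the cognate motif.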"}
{"binder": "B1", "binding signal": "0.0963 KA relative to UGCAUGU"}
{"binder": "B2", "binding signal": "0.0426 KA relative to UGCAUGU"}
{"binder": "B3", "binding signal": "0.0838 KA relative to UGCAUGU"}
{"binder": "B4", "binding signal": "0.112 KA relative to UGCAUGU"}
{"binder": "B5", "binding signal": "0.196 KA relative to UGCAUGU"}
{"binder": "B6", "binding signal": "0.105 KA relative to UGCAUGU"}
{"binder": "B7", "binding signal": "0.088 KA relative to UGCAUGU"}
{"binder": "B8", "binding signal": "0.22 KA relative to UGCAUGU"}
{"binder": "B9", "binding signal": "0.0685 KA relative to UGCAUGU"}
{"binder": "B10", "binding signal": "0.0799 KA relative to UGCAUGU"}
{"binder": "B11", "binding signal": "0.0956 KA relative to UGCAUGU"}
{"binder": "B12", "binding signal": "0.101 KA relative to UGCAUGU"}
{"binder": "B13", "binding signal": "0.102 KA relative to UGCAUGU"}
{"binder": "B14", "binding signal": "0.0527 KA relative to UGCAUGU"}
{"binder": "B15", "binding signal": "0.0954 KA relative to UGCAUGU"}
{"binder": "B16", "binding signal": "0.0441 KA relative to UGCAUGU"}
{"binder": "B17", "binding signal": "0.0809 KA relative to UGCAUGU"}
{"binder": "B18", "binding signal": "0.114 KA relative to UGCAUGU"}
{"binder": "B19", "binding signal": "0.0981 KA relative to UGCAUGU"}
{"binder": "B20", "binding signal": "0.0551 KA relative to UGCAUGU"}
{"binder": "B21", "binding signal": "0.0402 KA relative to UGCAUGU"}
{"binder": "B22", "binding signal": "0.103 KA relative to UGCAUGU"}
{"binder": "B23", "binding signal": "0.153 KA relative to UGCAUGU"}
{"binder": "B24", "binding signal": "0.0651 KA relative to UGCAUGU"}
{"binder": "B25", "binding signal": "0.0878 KA relative to UGCAUGU"}
{"binder": "B26", "binding signal": "0.0956 KA relative to UGCAUGU"}
{"binder": "B27", "binding signal": "0.188 KA relative to UGCAUGU"}
{"binder": "B28", "binding signal": "0.0952 KA relative to UGCAUGU"}
{"binder": "B29", "binding signal": "0.0937 KA relative to UGCAUGU"}
{"binder": "B30", "binding signal": "0.114 KA relative to UGCAUGU"}
{"binder": "B31", "binding signal": "0.14 KA relative to UGCAUGU"}
